Source: the supplement of paper PMC11417369
± gives the standard deviation of the averaged measurements. This is one part of the list.

tested on: PfAP2-EXP AP2 domain (GST-tagged); assay: gcPBM binding intensity (ln(normalized median fluorescence intensity)); higher = stronger DNA binding
Summary of the method: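 Binding intensity is defined as the maximum Masliner-normalised natural-log median intensity across replicate spots for either probe orientation. It was measured on an Agilent 4 × 180k array of primer-extended double-stranded 36-bp intergenic genomic probes and negative controls, to which GST-tagged P. falciparum DNA-binding domains made in E. coli were applied for 1 h in 1× PBS with 1% milk, 0.2 mg/ml BSA, 0.5% salmon testes DNA and 0.03% Triton X-100. Detection was by Alexa488 anti-GST antibody and scanning at 488 nm.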

Sequence | gcPBM binding intensity (ln)
TATATATATAAATACACACACACACCGATATATATA [CACACA_site5408] | 9.07 ± 0.45
TCATACATTTTCAGCCTGCACTTATATTTAATAATA [GTGCAC_site9863] | 8.86 ± 0.48
ATTTCCCCAACGTGGGTGCATATATTTATGTGTGAA [GTGCAC_site9439] | 9.12 ± 0.23
ATTATGTGAGGTAACTAAATATGTACGTAACGAAGA [CACACA_negctrl_site1400] | 9.12 ± 0.31
TATTAATTATTTTACTGTACTAATAATACTTTTATT [XGTACX_site2179] | 8.5 ± 0.44
ATTATATTTTTAAGTACACACATATAAATAAATATA [CACACA_site7682] | 8.43 ± 0.35
ATATATATATATGTGTGTACTTAAAAATATAATGCA [XGTACX_site7753] | 10.2 ± 0.14
TAATGTATAATTAATCGTACATTAGATTGTTGTGTT [XGTACX_site52] | 8.43 ± 0.51
AATTTTTTTTTTTTTTTTTCTTTTGTAATAAACCAT [XGTACX_negctrl_site334] | 8.18 ± 0.44
AAAAAAAAAAAACACACACACACACCGAAATATATA [CACACA_site4261] | 8.65 ± 0.65
TTCAGCATAAACACTTGTACATATATACTAAAAATT [XGTACX_site7272] | 8.51 ± 0.42
AAGGGAAAATAATAAAAGAAAAAGAAAAAAAAAAAA [CACACA_negctrl_site1518] | 8.36 ± 0.4
TAATGGAGAAAAAAAAAACACACGGTACATTCAAAG [CACACA_site3117] | 8.82 ± 0.49
TATATATATATATATTGTACTTTATATGTTCTTATA [XGTACX_site7545] | 10.3 ± 0.11
TTTTATAAAGGAAAAGCATGCAGACTAAAAGATCAT [TGCATGCA_site150] | 9.81 ± 0.4
AAATATTACATTTGTTAAATAATATGTTATACATAA [XGTACX_negctrl_site484] | 8.01 ± 0.39
ACAAATAAGTTTTATACACACATATAAGTAAATACA [CACACA_site4157] | 8.57 ± 0.29
GAGAGGAACATTATATGTACATATTAATTCTAAAAT [XGTACX_site5433] | 8.52 ± 0.4
TATAGTGATATATACACACACTTGTCTTGTAAAAAT [CACACA_site6594] | 8.46 ± 0.35

Sequence | gcPBM binding intensity (ln)
ACAATATTTTTTTATAAACACACATATATATAAATA [CACACA_site9175] | 8.41 ± 0.44
TGTATAAAAATTTATACACACATTTTATATATTTCA [CACACA_site1015] | 8.19 ± 0.4
TATTAATTATTATGACATACATATCAGTTATTAAAA [CACACA_negctrl_site600] | 8.23 ± 0.52
TAATCCATAAGAAGCACACACATATATATATATTTT [CACACA_site1399] | 8.54 ± 0.53
ATTTTGTTATTATATATATATATATATATATATATA [XGTACX_negctrl_site590] | 10.3 ± 0.57
ATATATATATATATAGTGCACATTTATATAATTATT | 10.3 ± 0.17
AAATTTATAAAGAACACACACATATATATATATATA [CACACA_site48] | 10.2 ± 0.27
CAAAACCTAATATGTACACACATATACATCACACTT [CACACA_site7480] | 8.57 ± 0.32
TTTCTTTCGAATGCTTCACACATTACTCTTAAATAG [CACACA_site5265] | 8.82 ± 0.47
AAATGTGAACTATAATAATTTCAACGTCTGATATAA [TGCATGCA_negctrl_site440] | 8.27 ± 0.51
ATTTTAAATTAAATTACACACTACGAATAATATATT [CACACA_site4016] | 8.43 ± 0.42
ATATTTCTGTCAAGCACACATAATATTAATATATGT [CACACA_site318] | 8.61 ± 0.23
AATAAATTATATATCACACATATATATTTATATTTA [CACACA_site5964] | 8.13 ± 0.23
ACATATAAAATATTCACACACAAGTTATAGTTCTCG [CACACA_site3626] | 8.41 ± 0.41
TTTCTTTTCTTCTCTATTTTTTTTTCACGGCATTAT [TGCATGCA_negctrl_site484] | 8.53 ± 0.47
AATATAAGAAAAATAACACACACATAAACATATATA [CACACA_site8899] | 8.9 ± 0.41
ACATTAAAAAATTGTTTGCACTATATAAAATATTAA [GTGCAC_site9728] | 8.54 ± 0.13
ATTCATATGAAACACACACACACACCCATAAAAAAA [CACACA_site3246] | 8.79 ± 0.56
ATTTTTTACATACTCAAATGTTTTAATTTTTTATAT [CACACA_negctrl_site1213] | 8.47 ± 0.45

Sequence | gcPBM binding intensity (ln)
TTTTTTTTTTTTTACACACACAAAATATTATAGGTA [CACACA_site7209] | 8.41 ± 0.51
TCTTTTCAATTTTATATGATCTTAATATTTTATGAA [GTGCAC_negctrl_site294] | 8.36 ± 0.45
ATTTTGGAAATAATATGTACATATACATAATATATA [XGTACX_site4177] | 8.36 ± 0.29
CGAACACAAACACAAACACACATCATATATATATAT [CACACA_site4857] | 9.97 ± 0.36
AATATACAAAAAAAAAAAAAAAAAAAAAAGATGGAA [TGCATGCA_negctrl_site550] | 8.27 ± 0.57
TGAATTTACAAAATCATGCACTTAATTACAGAATAA | 8.38 ± 0.26
AACAAAGGATTTATATATACATACATACATACATAA [GTGCAC_negctrl_site469] | 8.35 ± 0.33
ATAAAAAAAAAAAGAAGTACATGTATTAAAATTTAT [XGTACX_site3927] | 9.03 ± 0.35
AGCAAAATGAAATAAATTGGAAAATATTACTGAACG [CACACA_negctrl_site1433] | 8.56 ± 0.51
TTTATTATATTTTTTTGTACATATTGATGTATATAA [XGTACX_site6527] | 8.59 ± 0.28
GCAAATCTTATATGAAGTACATATCTTATAAATAAA [XGTACX_site6903] | 8.23 ± 0.42
GGTACATACAGACACACACACAAAAAAAAAAAAATA [CACACA_site6844] | 8.48 ± 0.61
AAAAGTCTTCAAATTTGTACATATATATATATATAT [XGTACX_site3404] | 10.29 ± 0.092
TTAATATTAATTATATGTACATATAATATATATATA [XGTACX_site1757] | 9.18 ± 0.13
ATCTTTTCATATTGCTGTACAAATTATTTTCATTCG [XGTACX_site492] | 9.05 ± 0.45
ATGTTAAACAAATCTATACACACGTATATGACAAAA [CACACA_site1783] | 8.6 ± 0.35
TGTATAAAATTCCATTGTACATATTATTTTACGACA [XGTACX_site7764] | 8.44 ± 0.3
GAGAAATGGAGACACACACACATATTATATATATAT [CACACA_site1532] | 9.7 ± 0.28
